Consider 42 molecules from ChEMBL document CHEMBL4888484, “Replenishing the malaria drug discovery pipeline: Screening and hit evaluation of the MMV Hit Generation Library 1 (HGL1) against asexual blood stage Plasmodium falciparum ,using a nano luciferase reporter read-out” (2022).

In all, about 150,000 compounds went through this assay and about 540 (0.36%) showed an effect of 50% or more. This is one part of the list.

This experiment has as its system Plasmodium falciparum. In words: Primary screen in NF54 nanoGlo assay, in single point, at 2uM, 72h; a lower Z score goes with more inhibition. Type of experiment: functional, Erythrocyte. Particulars: timepoint 72 hour.
Consider `CNC(=O)c1nc(-c2ccccc2)n2c1CCN(C(=O)NCCc1ccccc1)CC2`, for which the “% Inhibition” value is -18% and the Z score is listed as 2.12.

On to `COCCOCC(=O)NC[C@@]12CCCC=C1NC(=O)CC2`, for which the “% Inhibition” value is given as 3% and the Z score is listed as -0.41.

Take `CCc1n[nH]cc1C(=O)N[C@H]1CCN(Cc2cccnc2)C[C@@H]1O`: the “% Inhibition” value is -3% and the Z score is reported as 0.35.

With `Cc1csc([C@@H](C#N)C(=O)c2ccc(N3CCCC3)nc2)n1`, the “% Inhibition” value is listed as 9% and the Z score is on record as -0.99.

Turning to `CN1CC[C@@]2(CCC1=O)CN(c1nc3ccc(Cl)cc3s1)CCN2C`, the “% Inhibition” value is given as -10% and the Z score is 1.59.

With `CC(C)n1ccc(NC(=O)N[C@H]2CCS(=O)(=O)C2)n1`, the “% Inhibition” value is recorded as -8% and the Z score was 1.17.

For the molecule `Cc1noc(CNC(=O)Cn2c(C)cc(O)cc2=O)n1`, the “% Inhibition” value is reported as -1% and the Z score is 0.1.

Consider `Cc1nc(C(C)NC(=O)NCC2CCOC2C(C)C)cs1` (centres undefined), for which the “% Inhibition” value is 4% and the Z score was -0.45.

`Cn1c(C(=O)N(c2ccccc2)C2CCCCC2)cccc1=O`: the “% Inhibition” value worked out at 9% and the Z score is recorded as -0.9.

In the case of `Cc1nn(C)cc1[C@H](C)NS(=O)(=O)c1cccc2nsnc12`, the “% Inhibition” value is -11% and the Z score is reported as 1.05.

In the case of `Cc1onc(-c2ccccc2)c1C(=O)N1CCCCCC1`, the “% Inhibition” value is listed as -8% and the Z score worked out at 1.63.

With `Cc1ccc(C(=O)N2CCc3ccccc3[C@@H]2c2ccc(F)cc2)cc1`, the “% Inhibition” value is listed as -13% and the Z score came out at 1.87.

As to `Clc1ccc(N2CCOC3(CCOCC3)C2)nc1`, the “% Inhibition” value is on record as -6% and the Z score was 0.59.

Consider `Cc1ccc(Oc2nccn(C)c2=O)cn1`, for which the “% Inhibition” value was -8% and the Z score amounted to 0.96.

As for `Cc1nn(CCO)c(C)c1CN(C)CCn1ccnc1C`, the “% Inhibition” value is given as -4% and the Z score is 0.69.

Take `O=S(=O)(c1ccc2cc(O)ccc2c1)N1CCOCC1`: the “% Inhibition” value is on record as -1% and the Z score is reported as 0.13.

For `Cc1ccc(Cl)cc1NC(=O)[C@H]1CCCN(c2nc3ccccc3[nH]c2=O)C1`, the “% Inhibition” value is recorded as -3% and the Z score came to 0.52.

`CNC(=O)CCNC(=O)NCCC1CC2CCC1C2` (centres undefined): the “% Inhibition” value is on record as -26% and the Z score is reported as 3.

`CCOC(=O)N1CCN(C(=O)c2cc3c(-c4ccccc4F)nn(C)c3s2)CC1`: the “% Inhibition” value is -16% and the Z score is 2.11.

Take `CCCN1CCN(CC(=O)c2ccc3cc[nH]c3c2)CC1`: the “% Inhibition” value was -19% and the Z score was 2.48.

For `Cn1ccc(NC(=O)C(=O)Nc2cc(F)c(F)c(F)c2)n1`, the “% Inhibition” value worked out at 2% and the Z score is recorded as -0.28.

For the molecule `O=S(=O)(CCC1CC1)N1CCC[C@H]1c1nc(-c2ccccc2)c[nH]1`, the “% Inhibition” value is on record as -6% and the Z score came out at 0.61.

Take `CCc1nc([C@H](C)NCc2nnc(C)n2C2CC2)cs1`: the “% Inhibition” value is on record as -10% and the Z score amounted to 1.09.

For the molecule `COc1ccc(CCc2nc(-c3nnn(Cc4ccccc4)c3C)no2)cc1`, the “% Inhibition” value was -18% and the Z score amounted to 3.53.

Turning to `O=C(c1ccc2c(c1)OCO2)N1CCC(=C2CC2)CC1`, the “% Inhibition” value is -6% and the Z score is reported as 0.75.

Regarding `CCOc1ccc2nc(-c3nccn3[C@@H](C)Cn3cncn3)ccc2c1`, the “% Inhibition” value is given as -21% and the Z score is reported as 2.69.

In the case of `Cc1ccsc1[C@@H]1CCCCCN1S(=O)(=O)c1ccc(Cl)cc1`, the “% Inhibition” value is given as 1% and the Z score is given as -0.07.

Turning to `Cc1[nH]ncc1S(=O)(=O)Nc1cccc2cccnc12`, the “% Inhibition” value is on record as -3% and the Z score was 0.27.

Consider `Cc1ccc(OC[C@H]2c3ccsc3CCN2C(=O)CN(CC2CC2)C(=O)c2ccccc2)cc1`, for which the “% Inhibition” value was -2% and the Z score was 0.3.

In the case of `O=C(N[C@H]1CCNC1)c1csc(-c2ccc(Cl)cc2Cl)n1`, the “% Inhibition” value is on record as 7% and the Z score was -1.28.

With `Cc1noc(C)c1CC(=O)N1CCOCC1`, the “% Inhibition” value is -10% and the Z score is on record as 1.22.

With `CCOc1ccc(NC(=O)c2cnn3c2NC(C)=C(C(=O)Nc2ccc(Cl)cc2)[C@@H]3c2ccccc2F)cc1`, the “% Inhibition” value was 27% and the Z score is -3.8.

As to `Cc1cc(NC(=O)[C@H](C)S(=O)(=O)CC2CCCCC2)on1`, the “% Inhibition” value was -3% and the Z score came to 0.39.

On to `C=C(C)CN(CC)C(=O)Cc1csc(C(C)C)n1`, for which the “% Inhibition” value is given as -12% and the Z score was determined as 1.06.

On to `O=C1NC(c2ccccc2)=C(c2nc3ccccc3s2)[C@H](c2ccc(C(F)(F)F)cc2)N1`, for which the “% Inhibition” value was -10% and the Z score is reported as 1.87.

As to `O=C(Nc1ccccc1-c1nc2ccccc2s1)c1ccc(S(=O)(=O)N2CCCCCC2)cc1`, the “% Inhibition” value is -12% and the Z score stood at 2.33.

Turning to `CN(CC(=O)NCc1ccco1)Cc1cc(Cl)c2c(c1)OCCO2`, the “% Inhibition” value is reported as 13% and the Z score is listed as -1.6.

As to `C[C@@H](CS(C)(=O)=O)N(C)C(=O)COc1ccc(Cl)cc1`, the “% Inhibition” value amounted to 3% and the Z score was -0.38.

Consider `O=c1c(-c2ccccc2)cncn1Cc1nccs1`, for which the “% Inhibition” value came out at 3% and the Z score is recorded as -0.5.

On to `O=C(Nc1ccc(N2CCCS2(=O)=O)cc1)Nc1cccc(F)c1`, for which the “% Inhibition” value is 1% and the Z score was -0.1.

Take `CCc1csc(CCNc2ncc(F)c(OC)n2)n1`: the “% Inhibition” value is on record as 18% and the Z score is reported as -2.97.

Regarding `O=C1CC[C@@H](CN(Cc2ccccn2)C(=O)c2cn(C3CCCCC3)nn2)N1`, the “% Inhibition” value was -1% and the Z score is on record as 0.19.
